# Measured values: PubChem BioAssay AID1347073 (National Center for Advancing Translational Sciences (NCATS), 2019)
# Out of some 45,000 compounds screened, about 200 (0.44%) were called active. About 7% were inconclusive and are not listed. Calls follow the shape of the dose curve; as a rule, active = well fitted activation curve with a large enough effect; inconclusive = small, poorly fitted or top-dose-only effect; inactive = no such curve, though single readings can be large or run the other way. The list shows a part of the results.
# Assay: qHTS of TDP-43 Inhibitors: NCGC Sytravon Library Screen; also: 0% is about no effect; nearly all actives have a fitted effect of over 55% in size
# Conditions: yeast TDP-43 toxicity rescue, BacTiter-Glo growth, 24 h; series mostly up to 46.1 µM; growth rescue (activation): at the top concentration
# Procedure, shortened: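 TDP-43-expressing yeast, pregrown in raffinose, seeded at OD600 0.02 in galactose medium with compound for 24 hr at 30 deg C. Growth read by BacTiter-Glo luminescence, so rescue of toxicity appears as activation.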
row,SMILES,growth rescue (activation)
1,COc1ccc(-c2ccc(C(c3c(C)[nH][nH]c3=O)c3c(C)[nH][nH]c3=O)o2)c([N+](=O)[O-])c1,inactive: -2.31%
2,CCN(CC)S(=O)(=O)c1cccc(-c2n[nH]c(=S)n2C)c1,inactive: -11.9%
3,COc1ccc(NC(=S)NCCC2=CCCCC2)cc1OC,inactive: 13.1%
4,CNC(=O)c1cc(Cl)c(OC)c(OC)c1,inactive: 4.86%
5,COc1ccc(OCC(=O)Nc2cccc(C(=O)Nc3ccccc3C(=O)O)c2)cc1,inactive: 3.82%
6,Cc1cccc(N=C(NO)c2nonc2N)c1,inactive: -0.538%
7,CCCS(=O)(=O)NC(=O)C1(C)CCN(C(=O)Cc2ccc(OC)cc2)C1 (configuration not stated),inactive: -8.17%
8,CCCn1c(CCNC(=O)c2ccco2)nc2ccccc21,inactive: -20.4%
9,NS(=O)(=O)c1ccc(NC(=O)CN2C(=O)C3C4C=CC(C4)C3C2=O)cc1 (configuration not stated),inactive: -17.6%
10,CCN(C(=O)COC(=O)c1ccc(Br)o1)C1CCCCC1,inactive: 3.52%
11,Cc1cc(C)nc(SC2CC(=O)N(c3ccc(Cl)cc3)C2=O)n1 (configuration not stated),inactive: -4.03%
12,CC(=O)NC(C)(c1ccccc1)c1nc(/C=C/c2ccccc2)cs1 (configuration not stated),inactive: 28.8%
13,CCOC(=O)c1ccc(CN(Cc2ccccc2)S(=O)(=O)c2cccc([N+](=O)[O-])c2)cc1,inactive: -4.97%
14,Cc1ccc(NC(=O)C2CCC(=O)N2C(=O)OCc2ccccc2)cc1 (configuration not stated),inactive: 10.5%
15,CCOC(=O)C1(CCOc2ccccc2)CCN(Cc2cnc(C)s2)CC1,inactive: 2.07%
16,COc1ccc(-c2nn(C)c3sc(C(=O)NCCN(C)C)cc23)cc1OC,inactive: -7.02%
17,COc1ccc(Cn2c(O)c(C=Nc3ccccc3)c3ccccc3c2=O)cc1,inactive: -0.874%
18,COc1ccc(C(=O)Nc2nc(C)c3cc4c(cc3n2)OCO4)cc1,inactive: -0.471%
19,Cn1c(=O)n(C)c2cc([N+](=O)[O-])c(N3CCN(CCO)CC3)cc21,inactive: 6.27%
20,CC(=O)OCC1OC(OC(C)=O)C(NC(=O)Cc2ccccc2)C(OC(C)=O)C1OC(C)=O (configuration not stated),inactive: 2.3%
21,CCCOc1ccc(S(=O)(=O)n2cc(F)c(=O)[nH]c2=O)cc1,inactive: 5.61%
22,O=S(=O)(NCCN1CCOCC1)c1cc(Cl)ccc1Cl,inactive: 0.86%

row,SMILES,growth rescue (activation)
1,CC1CCCC(C)N1C(=O)CSc1nc(N)cc(N)n1 (configuration not stated),inactive: -1.74%
2,Cc1cc(NN)nc(NS(=O)(=O)c2ccccc2)n1,inactive: 5.78%
3,Cc1cc(C)nc(N2CCC(C(=O)NNC(=O)c3ccccc3)CC2)n1,inactive: -11.8%
4,CCOC(=O)c1sc(NC(=O)c2sc(C)nc2C)nc1C,inactive: 11.4%
5,Cn1nc(C2CC2)cc1NC(=O)C1(C)CCN1C(=O)CC(c1ccccc1)c1ccccc1 (configuration not stated),inactive: 4.91%
6,COc1ccc(NC(=O)c2cc(C3CCCCN3S(=O)(=O)c3cn(C)cn3)on2)c(C)c1 (configuration not stated),inactive: 0.534%
7,O=C(NCc1ccc(Cl)cc1)C1CCN(S(=O)(=O)N2CCOCC2)CC1,inactive: -1.78%
8,c1ccc(COc2ccc(-c3cc4nc(NCCOc5ccccc5)ccn4n3)cc2)cc1,inactive: 1.2%
9,COC(=O)Nc1nnc(/C=C/c2ccc(OC)cc2)s1,inactive: -15%
10,CCN1CCCC1CNC(=O)C(=O)Nc1ccccc1 (configuration not stated),inactive: 12.8%
11,O=C(O)C/C(=C\c1cc2c(cc1Br)OCO2)c1nc2ccccc2s1,inactive: 14.1%
12,COc1cccc(NC(=O)C(=O)NCc2ccncc2)c1,inactive: 5.89%
13,O=C(O)c1cc([N+](=O)[O-])c(NCc2cccnc2)c([N+](=O)[O-])c1,inactive: 0.561%
14,O=C(CCl)Nc1ccc(N2CCCCCC2)cc1,inactive: -1.73%
15,Cc1cc(F)ccc1-c1cc(C(=O)Nc2ccc(F)cc2)[nH]n1,inactive: 5.53%
16,COc1ccc(OC)c(NC(=O)C2CCCN(S(=O)(=O)c3ccc(-n4cnnn4)cc3)C2)c1 (configuration not stated),inactive: -7.82%
17,COc1ccc(NC(=O)N[C@@H](CCSC)C(=O)O)cc1OC,inactive: 6.19%
18,CC1CC(C)CN(C(=O)COC(=O)Cc2ccc(Br)cc2)C1 (configuration not stated),inactive: 9.19%
19,Cc1cc(C)n(-c2ccc(C(=O)OCC(=O)Nc3ccc(S(N)(=O)=O)cc3)cc2)n1,inactive: 3.45%
20,Cc1ccc(C)c(-n2c(-c3cccnc3)n[nH]c2=S)c1,inactive: 4.79%
21,Cc1ccc(NC(=O)CN2C(=O)C(c3ccc(F)cc3)=NC23CCCCCC3)c(C)c1,inactive: 20.1%
22,COc1ccc(OS(=O)(=O)Cc2ccccc2)cc1,inactive: 19.3%

row,SMILES,growth rescue (activation)
1,O=C(NCc1ccc(F)cc1)c1ccc(NC(=O)C2CCCO2)cc1 (configuration not stated),inactive: 20%
2,NC(=O)C1(N2CCCCC2)CCN(C(=S)Nc2cc(F)cc(F)c2)CC1,inactive: -2.54%
3,Nc1nc(-c2cccnc2)nc2sc3c(c12)CCCC3,inactive: 10.1%
4,Cc1cccc(NC(=O)Nc2cccs2)c1C,inactive: 17.8%
5,COc1cccc(NC(=O)Nc2ccc(Cc3ccncc3)cc2)c1,inactive: 6.02%
6,CCSc1nc(=S)n(Cc2ccccc2)c(C)c1C(C)=O,inactive: 9.99%
7,COCCNC(=O)c1c(C)cc(C)cc1C,inactive: 12.8%
8,COc1ccc(Cl)cc1C(=O)OCC(=O)Nc1sccc1C(N)=O,inactive: 1.64%
9,Cc1ccccc1CN1CCN(S(=O)(=O)c2ccc(Cl)s2)CC1,inactive: 2.12%
10,O=C(COc1ccccc1Cl)NCCCNC(=O)c1cccnc1,inactive: 10.4%
11,Cc1cccc(OCCC(=O)Nc2ccc(C)c(S(=O)(=O)N3CCCCC3)c2)c1,inactive: 15.9%
12,COc1cccc(C(C(=O)NCC2CCCO2)N(C(=O)Cn2nnc3ccccc32)c2ccc(NC(C)=O)cc2)c1 (configuration not stated),inactive: 7.53%
13,O=C(CSc1nnc2ccccn12)NC(=O)c1cccc([N+](=O)[O-])c1,inactive: 1.61%
14,Cc1ccc(NC(=O)c2ccn(C(=O)Nc3ccccc3)n2)c(C)c1,inactive: 32.4%
15,C#CC(C)(CC)NC(=O)c1cc2nc(C3CC3)cc(C(F)(F)F)n2n1 (configuration not stated),inactive: 23.5%
16,Cc1ccc(S(=O)(=O)N2CCCC2C(=O)N2CCCCCC2)cc1 (configuration not stated),inactive: -24.1%
17,O=C(CSc1nncs1)Nc1ccc(Cl)cn1,inactive: 0.807%
18,Cc1ccc(C(C)C)c(OCC(=O)Nc2cc(-c3nc4ccccc4[nH]3)ccc2C)c1,inactive: 20.1%
19,COc1ccc(C2c3c(ncn(Cc4ccco4)c3=N)Oc3ccc4ccccc4c32)cc1 (configuration not stated),inactive: 7.11%
20,CCc1ccc(-n2ccc(=O)c(C(=O)O)n2)cc1,inactive: -8.94%
21,Cc1cc(S(=O)(=O)NCc2ccccc2)ccc1OCC(=O)N1CCOCC1,inactive: -8.46%
22,CC(=O)NCCNC(=O)c1ccc(-n2c(C)ccc2C)cc1,inactive: 0.238%

row,SMILES,growth rescue (activation)
1,CC(C)N=c1scc(-c2cccs2)n1/N=C/c1ccc(O)c(O)c1O,inactive: -37%
2,CCOC(=O)c1cc(-c2ccccc2)sc1NC(=O)CSc1nncs1,inactive: 9.12%
3,COc1ccccc1-c1cn[nH]c1-c1ccc(OCc2ccccc2F)cc1O,inactive: -6.94%
4,O=C1C2C3C=CC(c4ccccc4)(C2C(=O)N1c1cccc(Cl)c1)C1C(=O)N(c2cccc(Cl)c2)C(=O)C31 (configuration not stated),inactive: 8.5%
5,COc1ccc(C)cc1NC(=O)C1CCN(C(=O)c2ccco2)CC1,inactive: -8.36%
6,CC(=O)Nc1ccc2c(c1)C(C)(C)C(C)N2C (configuration not stated),inactive: -11.4%
7,NS(=O)(=O)c1ccc(CNC(=O)Cc2ccccc2F)cc1,inactive: -5.33%
8,N#CC1=C2SC=C(c3ccc(Br)cc3)N2CCCC1=O,inactive: 6.44%
9,Cc1nc(NC(=O)c2ccc(-c3cc4ccccc4oc3=O)cc2)ccc1Br,inactive: 0.6%
10,CC(=O)Nc1cccc(-c2ccnc3c2CC(C)(C(=O)Nc2cccc(C(F)(F)F)c2)O3)c1 (configuration not stated),inactive: -11.6%
11,CC1=C([N+](=O)[O-])C(c2ccc3c(c2)OCO3)N(C)C(=O)N1C (configuration not stated),inactive: 3.36%
12,Cc1nn(C)c(Oc2ccccc2)c1CCNC(=O)CCl,inactive: 4.59%
13,Cc1c(CC(=O)NCCCC(=O)O)c(=O)oc2cc3c(cc12)CCC(C)(C)O3,inactive: 0.507%
14,O=C(OCn1nnc2ccccc2c1=O)c1cc(-c2ccccc2Cl)nc2ccccc12,inactive: 1.01%
15,O=C(COC(=O)Cc1ccccc1F)Nc1cc(S(=O)(=O)N2CCOCC2)ccc1N1CCCC1,inactive: -4%
16,COc1ccc(NC(=O)c2ccccc2SC)c(OC)c1,inactive: 18.5%
17,OCCN1CNC(=S)NC1,inactive: 7.64%
18,C[C@@H]1CN(C2CCN(Cc3nc(C(c4ccccc4)c4ccccc4)no3)CC2)C[C@H](C)O1,inactive: -1.84%
19,Nc1ccc(-c2ccc(N)c([N+](=O)[O-])c2)cc1[N+](=O)[O-],inactive: 8.24%
20,CS(=O)(=O)c1ccccc1C(=O)Nc1ccccc1Cc1ccccc1,inactive: -46.2%
21,CCc1nc2ccc(C(=O)N3CCCC(C(N)=O)C3)cn2c1N(CCC(C)C)CCN(C)C (configuration not stated),inactive: 5.59%
22,O=C(NC(=S)Nc1ccccc1N1CCOCC1)c1ccc([N+](=O)[O-])cc1,inactive: 14.9%

row,SMILES,growth rescue (activation)
1,CC1CCN(C(=O)CSc2nnc(-c3ccccc3F)o2)CC1,inactive: 21.2%
2,CCOC(=O)c1cnc(SCC(=O)Nc2ccc3c(c2)OCCO3)nc1N,inactive: 11%
3,Cc1cc(C2=NNC(=Nc3ccc(S(=O)(=O)N4CCOCC4)cc3)SC2)c(C)n1CC1CCCO1 (configuration not stated),inactive: 9.42%
4,CCOC(=O)C1=C(N)n2c(s/c(=C\c3cccnc3)c2=O)=C(C(=O)OC)C1c1cccnc1 (configuration not stated),inactive: 11.5%
5,COc1ccc(N2CCN(C(=O)C3CC(=O)N(c4ccc(C)cc4)C3)CC2)cc1 (configuration not stated),inactive: -3.77%
6,Cc1cc(C(=O)NCCc2ccc(S(N)(=O)=O)cc2)no1,inactive: -6.32%
7,O=C(Nc1nccs1)[C@@H]1CCCN1S(=O)(=O)c1ccc(Cl)cc1,inactive: 21.8%
8,Cc1ccc(C(=O)NCCCNC(=O)COc2ccc(C)c(C)c2)cn1,inactive: -0.508%
9,CC1CCC(N2CCN(S(=O)(=O)Cc3ccccc3)CC2)CC1 (configuration not stated),inactive: 1.18%
10,Cc1ccc(NC(=S)NC(=O)c2ccc(-c3ccc(Cl)cc3)o2)c(O)c1,inactive: 18.7%
11,COc1cccc(CSc2nnc(-c3ccncc3)n2C)c1,inactive: 15.1%
12,COc1cccc(/C(C)=N/Nc2ncc(Cl)cc2Cl)c1,inactive: 7.62%
13,CCC(C)NS(=O)(=O)c1ccc(OCC(=O)NCc2ccccn2)cc1 (configuration not stated),inactive: -12.9%
14,CC1=CC2=NC(=O)/C(=C\c3cn(C)c4ccccc34)C(=N)N2O1,inactive: 7.65%
15,CCN1CCN(c2oc(-c3ccccc3)nc2S(=O)(=O)c2ccc(C)cc2)CC1,inactive: -6.33%
16,CCc1ccc(CN2CCCC(CNC(=O)c3cccc(OC)c3OC)C2)cc1 (configuration not stated),inactive: 3.42%
17,CCOC(=O)c1c(NC(=O)c2ccc(Br)o2)sc(C)c1CC,inactive: 22%
18,Cc1cc(C(=O)Cn2nnc(-c3ccc(Cl)cc3)n2)c(C)n1-c1ccccc1,inactive: 4.9%
19,CC1=C(CC(=O)NCC(=O)NCC(=O)O)c2cc(F)ccc2/C1=C/c1ccc(S(C)=O)cc1 (configuration not stated),inactive: -19.3%
